Laboratory results as given in PubChem BioAssay AID761 (NMMLSC, 2007).
About 400 (0.21%) of roughly 190,000 compounds were called active. This list was built around the results that the source calls inconclusive (neither active nor inactive); the mix of calls is not that of the screen.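 How the source made its calls: active means percent activity GTP binding at least 20 points away from the 100% baseline, either down as inhibitor or up as activator; inconclusive means compound flagged as likely green fluorescent from well-wide comparison; inactive means the rest.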

Molecular target: Cell division control protein 42 homolog (Homo sapiens) (UniProt P60953)
Sequence of UniProt P60953 (P60953 whole entry, looked up): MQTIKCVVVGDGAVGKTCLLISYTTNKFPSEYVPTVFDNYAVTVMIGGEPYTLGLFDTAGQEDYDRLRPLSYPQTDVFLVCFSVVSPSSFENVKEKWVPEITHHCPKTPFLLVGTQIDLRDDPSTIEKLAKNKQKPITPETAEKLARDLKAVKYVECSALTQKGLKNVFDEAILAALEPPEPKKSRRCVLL
Assay: wildtype Cdc42 fluorescent GTP binding changes, either direction – biochemical, multiplex bead flow cytometry, Bodipy-GTP, primary screen (AID 761);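 further: median bead fluorescence of bound Bodipy-FL-GTP at 100 nM; 0% = excess unlabeled GTP control and 100% = no compound control; below 100% means less GTP binding so inhibitor and above means activator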
Conditions: GST-Cdc42 beads, at 10 µM, actives lie on both sides

SMILES	percent activity (GTP binding)
CC(=O)N1Cc2cc([N+](=O)[O-])ccc2Oc2ccccc21	inactive: 90%
COc1ccc(N=C2NC(=O)/C(=C/c3ccc(O)c(OC)c3)S2)cc1	inactive: 96%
COc1cccc(CNC(=O)CCS(=O)(=O)c2cccc3nonc23)c1	inconclusive: 105%
C=CCn1cn[nH]c1=S	inactive: 96%
CCc1nnc(NS(=O)(=O)c2ccc(N/C=C\C(=O)c3ccc(F)cc3)cc2)s1	inconclusive: 87%
Cc1c(NC(=O)c2ccc(-c3ccc([N+](=O)[O-])cc3Cl)o2)c(=O)n(-c2ccccc2)n1C	inconclusive: 97%
CC(C)CNC(=O)C(=O)NNC(=O)C1CCCCC1	inconclusive: 109%
COc1cc(/C=C(\C#N)c2nc3ccc(C)cc3[nH]2)cc([N+](=O)[O-])c1O	active: 78%
CCn1c(=O)cc(SCC(=O)N2CCC(C)CC2)c2ccccc21	inconclusive: 94%
C=CCc1ccccc1OCC(O)CN1CCN(c2ccc(C)cc2)CC1 (configuration not stated)	inconclusive: 95%
O=C(Nc1cccc(O)c1)c1ccc(Br)c(S(=O)(=O)N2CCCCC2)c1	inconclusive: 95%
O=[N+]([O-])c1ccc(Cl)cc1N1CCCCC1	inactive: 96%
Nc1ccc2c(c1)C(=O)C(=O)c1ccccc1-2	active: 70%
COc1ccccc1-c1nnc(SCC(=O)c2ccc(C3CCCCC3)cc2)n1Cc1ccco1	inconclusive: 93%
O=C(O)C(CC1CCCCC1)N1CCS(=O)(=O)CC1 (configuration not stated)	inactive: 96%
CC(C)(C)SCCNC(=O)c1cccc([N+](=O)[O-])c1	inconclusive: 104%
Cc1cc2nccc(-c3ccc(Cl)c([N+](=O)[O-])c3)n2n1	inactive: 97%
O=C(COc1ccc(Cl)cc1)NNC(=O)CSc1nncs1	inactive: 95%
O=C(O)CC/C(=C\c1ccc(N2CCOCC2)c([N+](=O)[O-])c1)c1nc2ccccc2s1	active: 71%
Nc1c(C(=O)NCC2CCCO2)sc2nc3c(c(-c4ccco4)c12)CC/C3=C\c1ccco1 (configuration not stated)	inconclusive: 85%
O=C(Nc1cc(C(F)(F)F)ccc1N1CCCCC1)c1cccc([N+](=O)[O-])c1	inconclusive: 94%
Cc1c(Cl)c([N+](=O)[O-])nn1Cc1ccc(C(=O)N/N=C\c2cc(Cl)ccc2O)o1	inconclusive: 92%
O=C(c1ccc([N+](=O)[O-])cc1[N+](=O)[O-])N1CCCC1	inconclusive: 94%
O=C(/C=C/c1ccc(-c2ccccc2)o1)c1ccccc1	inconclusive: 96%

SMILES	percent activity (GTP binding)
Cc1cc(Cl)ccc1OCC(=O)N1CCN(c2ncccn2)CC1	inconclusive: 93%
CN1CCN(C(=S)c2cn(CCOc3ccccc3F)c3ccccc23)CC1	inactive: 103%
COc1ccc(CN2CCNC(=O)C2CC(=O)N2CCc3ccccc3C2)c(OC)c1 (configuration not stated)	inconclusive: 95%
COC(=O)N/N=C/c1cc(Br)ccc1O	inconclusive: 101%
O=C(OCc1ccc2c(c1)OCO2)c1ccc(S(=O)(=O)N2CCCCC2)cc1	inconclusive: 104%
CCCc1nn(C)c(C(=O)Nc2cccc(C)c2)c1Cl	inconclusive: 101%
O=S(=O)(Nc1ccc(O)c(Sc2nc3ccccc3s2)c1)c1ccc(Cl)cc1	inconclusive: 93%
O=C(CSc1cccc(C(F)(F)F)c1)NC(=O)c1ccccc1	inconclusive: 103%
O=[N+]([O-])c1ccccc1CN1CCN(Cc2ccccn2)CC1	inconclusive: 95%
COc1ccc(CNC(=O)c2cc3c(C)nc4ccccc4c3o2)c(OC)c1	inconclusive: 95%
O=C(/C(=C/c1ccccc1)c1ccccc1)N1CCCCC1	inconclusive: 110%
COc1cccc(/C=C2\SC(=S)N(c3cccnc3)C2=O)c1OC	inconclusive: 90%
CC(C)c1ccc(/C=C/C(=O)n2nnc3ccccc32)cc1	inconclusive: 86%
CCOC(=O)c1cc(C(=O)OCC)c(=O)[nH]c1C	inactive: 107%
C=CCNC(=S)N/N=C/c1ccc(-c2ccc(OC)cc2)o1	inconclusive: 89%
O=c1c(/C=N/Nc2ccccc2)c(Sc2nnnn2-c2ccccc2)nc2ccccn12	inconclusive: 119%
CC1(C)Cc2c(sc(NC(=O)c3ccc(Br)o3)c2C#N)CO1	active: 148% [activator]
Clc1ccc(SCCCCN2CCOCC2)cc1	inconclusive: 105%
Cc1ccsc1/C=N/n1c(-c2ccncc2)n[nH]c1=S	inactive: 102%
O=C(COc1ccc(Br)cc1)c1ccc2c(c1)CCCC2	inconclusive: 96%
COC(=O)Oc1ccc(/C=N/NC(=O)CSCc2ccc(Cl)cc2)cc1OC	inactive: 96%
CNc1c([N+](=O)[O-])cnn1-c1ccc(Cl)cc1	inconclusive: 95%
CCOC(=O)N1C=CC(C)=C[C@@H]2[C@@H](N3C(=O)c4ccccc4C3=O)C(=O)N21	inactive: 103%
